# Test results reported in the supplement of paper PMC8728848.
# The other results are listed elsewhere or left out.
# B1: AFL (Aspergillus fumigatus), Q4WW81 (protein)
# chain: STPGAQQVLFRTGIAAVNLTNHLRVYFQDVYGSIRESLYEGSWANGTEKNVIGNAKLGSPVAATSKELKHIRVYTLTEGNTLQEFAYDSGTGWYNGGLGGAKFQVAPYSRIAAVFLAGTDALQLRIYAQKPDNTIQEYMWNGDGWKEGTNLGGALPGTGIGATSFRYTDYNGPSIRIWFQTDDLKLVQRAYDPHKGWYPDLVTIFDRAPPRTAIAATSFGAGNSSIYMRIYFVNSDNTIWQVCWDHGKGYHDKGTITPVIQGSEVAIISWGSFANNGPDLRLYFQNGTYISAVSEWVWNRAHGSQLGRSALPPA
# Tests used:
# Assay in all cases: glycan array binding signal (z-score within array); higher = stronger binding
# Conditions in all cases: glycan notation: IUPAC condensed, linker removed
# [1] = target: Fuc(a1-2)Gal6S(b1-4)Glc6S
# Procedure, shortened: (§1)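 Glycan array data came from 3228 arrays in the Consortium for Functional Glycomics database, and only arrays with an available protein sequence were kept. Glycan names were put into IUPAC-condensed notation, and columns mapping to the same glycan were averaged. The binding signal is a within-array Z-score, averaged across arrays of one protein sequence run at different concentrations or buffers and across linkers. A negative Z-score can be read as non-binding.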
# [2] = target: Fuc(a1-2)Gal6S(b1-4)GlcNAc
# Procedure, shortened: as §1
# Fuc(a1-2)[Gal(a1-3)]Gal = target: Fuc(a1-2)[Gal(a1-3)]Gal
# Procedure, shortened: as §1
# [3] = target: Fuc(a1-2)[Gal(a1-3)]Gal(b1-3)GalNAc
# Procedure, shortened: as §1
# [4] = target: Fuc(a1-2)[Gal(a1-3)]Gal(b1-3)GlcNAc
# Procedure, shortened: as §1
# [5] = target: Fuc(a1-2)[Gal(a1-3)]Gal(b1-3)GlcNAc(b1-2)Man(a1-3)[Fuc(a1-2)[Gal(a1-3)]Gal(b1-3)GlcNAc(b1-2)Man(a1-6)]Man(b1-4)GlcNAc(b1-4)GlcNAc
# Procedure, shortened: as §1
# [6] = target: Fuc(a1-2)[Gal(a1-3)]Gal(b1-3)GlcNAc(b1-2)Man(a1-3)[Fuc(a1-2)[Gal(a1-3)]Gal(b1-3)GlcNAc(b1-2)Man(a1-6)]Man(b1-4)GlcNAc(b1-4)[Fuc(a1-6)]GlcNAc
# Procedure, shortened: as §1
# [7] = target: Fuc(a1-2)[Gal(a1-3)]Gal(b1-3)GlcNAc(b1-3)GalNAc
# Procedure, shortened: as §1
# [8] = target: Fuc(a1-2)[Gal(a1-3)]Gal(b1-4)Glc
# Procedure, shortened: as §1
# [9] = target: Fuc(a1-2)[Gal(a1-3)]Gal(b1-4)GlcNAc
# Procedure, shortened: as §1
# [10] = target: Fuc(a1-2)[Gal(a1-3)]Gal(b1-4)GlcNAc(b1-2)Man(a1-3)[Fuc(a1-2)[Gal(a1-3)]Gal(b1-4)GlcNAc(b1-2)Man(a1-6)]Man(b1-4)GlcNAc(b1-4)GlcNAc
# Procedure, shortened: as §1
# [11] = target: Fuc(a1-2)[Gal(a1-3)]Gal(b1-4)GlcNAc(b1-2)Man(a1-3)[Fuc(a1-2)[Gal(a1-3)]Gal(b1-4)GlcNAc(b1-2)Man(a1-6)]Man(b1-4)GlcNAc(b1-4)[Fuc(a1-6)]GlcNAc
# Procedure, shortened: as §1
# [12] = target: Fuc(a1-2)[Gal(a1-3)]Gal(b1-4)GlcNAc(b1-3)GalNAc
# Procedure, shortened: as §1
# [13] = target: Fuc(a1-2)[Gal(a1-3)]Gal(b1-4)[Fuc(a1-3)]Glc
# Procedure, shortened: as §1
# [14] = target: Fuc(a1-2)[Gal(a1-3)]Gal(b1-4)[Fuc(a1-3)]GlcNAc
# Procedure, shortened: as §1
# [15] = target: Fuc(a1-2)[Gal(a1-3)]Gal(b1-4)[Fuc(a1-3)]GlcNAc(b1-3)GalNAc
# Procedure, shortened: as §1
# [16] = target: Fuc(a1-2)[Gal(a1-4)]Gal(b1-4)GlcNAc
# Procedure, shortened: as §1
# [17] = target: Fuc(a1-2)[GalNAc(a1-3)]Gal
# Procedure, shortened: as §1
# [18] = target: Fuc(a1-2)[GalNAc(a1-3)]Gal(b1-3)GalNAc(a1-3)[Fuc(a1-2)]Gal(b1-4)GlcNAc
# Procedure, shortened: as §1
# [19] = target: Fuc(a1-2)[GalNAc(a1-3)]Gal(b1-3)GlcNAc
# Procedure, shortened: as §1
# [20] = target: Fuc(a1-2)[GalNAc(a1-3)]Gal(b1-3)GlcNAc(b1-2)Man(a1-3)[Fuc(a1-2)[GalNAc(a1-3)]Gal(b1-3)GlcNAc(b1-2)Man(a1-6)]Man(b1-4)GlcNAc(b1-4)GlcNAc
# Procedure, shortened: as §1
# [21] = target: Fuc(a1-2)[GalNAc(a1-3)]Gal(b1-3)GlcNAc(b1-2)Man(a1-3)[Fuc(a1-2)[GalNAc(a1-3)]Gal(b1-3)GlcNAc(b1-2)Man(a1-6)]Man(b1-4)GlcNAc(b1-4)[Fuc(a1-6)]GlcNAc
# Procedure, shortened: as §1
# [22] = target: Fuc(a1-2)[GalNAc(a1-3)]Gal(b1-3)GlcNAc(b1-3)GalNAc
# Procedure, shortened: as §1
# [23] = target: Fuc(a1-2)[GalNAc(a1-3)]Gal(b1-4)Glc
# Procedure, shortened: as §1
# [24] = target: Fuc(a1-2)[GalNAc(a1-3)]Gal(b1-4)GlcNAc
# Procedure, shortened: as §1
# [25] = target: Fuc(a1-2)[GalNAc(a1-3)]Gal(b1-4)GlcNAc(b1-2)Man(a1-3)[Fuc(a1-2)[GalNAc(a1-3)]Gal(b1-4)GlcNAc(b1-2)Man(a1-6)]Man(b1-4)GlcNAc(b1-4)GlcNAc
# Procedure, shortened: as §1
# [26] = target: Fuc(a1-2)[GalNAc(a1-3)]Gal(b1-4)GlcNAc(b1-2)Man(a1-3)[Fuc(a1-2)[GalNAc(a1-3)]Gal(b1-4)GlcNAc(b1-2)Man(a1-6)]Man(b1-4)GlcNAc(b1-4)[Fuc(a1-6)]GlcNAc
# Procedure, shortened: as §1
# [27] = target: Fuc(a1-2)[GalNAc(a1-3)]Gal(b1-4)GlcNAc(b1-3)Gal(b1-4)GlcNAc
# Procedure, shortened: as §1
# [28] = target: Fuc(a1-2)[GalNAc(a1-3)]Gal(b1-4)GlcNAc(b1-3)Gal(b1-4)GlcNAc(b1-3)Gal(b1-4)GlcNAc
# Procedure, shortened: as §1
# [29] = target: Fuc(a1-2)[GalNAc(a1-3)]Gal(b1-4)GlcNAc(b1-3)GalNAc
# Procedure, shortened: as §1
# [30] = target: Fuc(a1-2)[GalNAc(a1-3)]Gal(b1-4)[Fuc(a1-3)]GlcNAc
# Procedure, shortened: as §1
# [31] = target: Fuc(a1-2)[GalNAc(a1-3)]Gal(b1-4)[Fuc(a1-3)]GlcNAc(b1-3)GalNAc
# Procedure, shortened: as §1
# [32] = target: Fuc(a1-2)[GalNAc(a1-4)]Gal(b1-4)GlcNAc
# Procedure, shortened: as §1
# [33] = target: Fuc(a1-2)[GalNAc(b1-3)]Gal
# Procedure, shortened: as §1
# Fuc(a1-3)GlcNAc = target: Fuc(a1-3)GlcNAc
# Procedure, shortened: as §1
# [34] = target: Fuc(a1-3)[Gal(b1-4)]Glc6S
# Procedure, shortened: as §1
# [35] = target: Fuc(a1-3)[Gal(b1-4)]GlcNAc
# Procedure, shortened: as §1
# [36] = target: Fuc(a1-3)[Gal(b1-4)]GlcNAc(b1-2)Man(a1-3)[Fuc(a1-3)[Gal(b1-4)]GlcNAc(b1-2)Man(a1-6)]Man(b1-4)GlcNAc(b1-4)GlcNAc
# Procedure, shortened: as §1
binder,measurement,setting,value
B1,glycan array binding signal (z-score),[1],2.72
same,glycan array binding signal (z-score),[2],2.03
same,glycan array binding signal (z-score),Fuc(a1-2)[Gal(a1-3)]Gal,2.2
same,glycan array binding signal (z-score),[3],-0.362
same,glycan array binding signal (z-score),[4],-0.378
same,glycan array binding signal (z-score),[5],-0.379
same,glycan array binding signal (z-score),[6],-0.031
same,glycan array binding signal (z-score),[7],-0.382
same,glycan array binding signal (z-score),[8],-0.359
same,glycan array binding signal (z-score),[9],-0.352
same,glycan array binding signal (z-score),[10],-0.36
same,glycan array binding signal (z-score),[11],0.309
same,glycan array binding signal (z-score),[12],-0.378
same,glycan array binding signal (z-score),[13],0.164
same,glycan array binding signal (z-score),[14],-0.13
same,glycan array binding signal (z-score),[15],-0.31
same,glycan array binding signal (z-score),[16],2.51
same,glycan array binding signal (z-score),[17],1.73
same,glycan array binding signal (z-score),[18],-0.388
same,glycan array binding signal (z-score),[19],-0.384
same,glycan array binding signal (z-score),[20],-0.374
same,glycan array binding signal (z-score),[21],0.059
same,glycan array binding signal (z-score),[22],-0.38
same,glycan array binding signal (z-score),[23],-0.369
same,glycan array binding signal (z-score),[24],-0.359
same,glycan array binding signal (z-score),[25],-0.338
same,glycan array binding signal (z-score),[26],0.018
same,glycan array binding signal (z-score),[27],-0.349
same,glycan array binding signal (z-score),[28],-0.378
same,glycan array binding signal (z-score),[29],-0.39
same,glycan array binding signal (z-score),[30],-0.336
same,glycan array binding signal (z-score),[31],-0.375
same,glycan array binding signal (z-score),[32],2.88
same,glycan array binding signal (z-score),[33],-0.165
same,glycan array binding signal (z-score),Fuc(a1-3)GlcNAc,3.8
same,glycan array binding signal (z-score),[34],-0.189
same,glycan array binding signal (z-score),[35],1.04
same,glycan array binding signal (z-score),[36],1.14
